Experimental data reported in PubChem BioAssay AID743255 (National Center for Advancing Translational Sciences (NCATS), 2014).
The campaign covered roughly 390,000 compounds. About 910 (0.23%) were called active. Roughly 5% stayed inconclusive and do not appear here. Calls come from the whole dose curve; as a rule, active = well fitted inhibition curve with a large enough effect; inconclusive = small, poorly fitted or top-dose-only effect; inactive = no such curve, though single readings can be large or run the other way. The list shows a part of the results, in another mix than the full data.

molecular target: Ubiquitin carboxyl-terminal hydrolase 1 (Homo sapiens) (UniProt O94782); assay: Inhibitors of USP1/UAF1: Primary Screen; conditions: recombinant USP1/UAF1, Ub-Rhodamine cleavage fluorescence; activity change, negative = inhibition: at 57.1 µM (top of the series); note: nearly all actives have a fitted effect of over 60% in size
Summary of the method: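 High-throughput fluorogenic screen: 1nM USP1/UAF1 complex, Ub-Rho substrate 150nM final, 50mM HEPES pH 7.8 with 0.5mM EDTA, 0.1 mg/ml BSA, 1mM TCEP and 0.01% Tween-20.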
% is set by controls: 0 for no effect and ±100 for the full control effect; potency is the fitted concentration of half-maximal effect.

UniProt O94782, sequence (O94782 whole entry, looked up): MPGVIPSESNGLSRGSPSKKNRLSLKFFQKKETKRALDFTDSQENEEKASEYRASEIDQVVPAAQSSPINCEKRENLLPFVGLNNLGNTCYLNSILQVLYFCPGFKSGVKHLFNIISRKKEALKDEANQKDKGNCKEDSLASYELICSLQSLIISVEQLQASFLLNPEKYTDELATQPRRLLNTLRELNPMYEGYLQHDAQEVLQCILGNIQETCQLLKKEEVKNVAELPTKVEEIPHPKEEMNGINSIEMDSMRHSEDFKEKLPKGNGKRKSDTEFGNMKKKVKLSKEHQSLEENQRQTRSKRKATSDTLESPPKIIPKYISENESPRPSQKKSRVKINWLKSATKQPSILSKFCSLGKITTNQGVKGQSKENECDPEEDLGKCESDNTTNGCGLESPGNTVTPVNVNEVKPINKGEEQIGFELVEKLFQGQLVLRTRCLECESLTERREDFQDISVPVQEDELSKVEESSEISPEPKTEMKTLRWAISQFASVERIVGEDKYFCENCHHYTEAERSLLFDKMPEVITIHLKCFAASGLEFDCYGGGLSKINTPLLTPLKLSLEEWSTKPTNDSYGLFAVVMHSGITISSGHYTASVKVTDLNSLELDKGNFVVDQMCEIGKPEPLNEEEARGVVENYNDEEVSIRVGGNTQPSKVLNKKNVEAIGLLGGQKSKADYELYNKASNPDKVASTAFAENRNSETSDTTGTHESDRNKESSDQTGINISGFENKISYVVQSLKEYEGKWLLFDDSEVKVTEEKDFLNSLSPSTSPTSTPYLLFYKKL

Activity change, negative = inhibition, inactive:
C[C@H]1CN([C@@H](C)CO)C(=O)CCCn2nncc2CO[C@@H]1CN(C)Cc1ccc2c(c1)OCCO2 -18.6%
C[C@H]1CN([C@@H](C)CO)C(=O)CCCn2nncc2CO[C@@H]1CN(C)Cc1cccc(C(F)(F)F)c1 7.31%
COc1ccc(OCC(=O)NCC(c2ccc(OC)cc2)N2CCCCC2)cc1 (centres undefined) -17.6%
Cc1ccc(Cn2c(=N)c(S(=O)(=O)c3ccc(C)cc3)cc3c(=O)n4ccccc4nc32)cc1 51.7%
COC(C[C@H]1O[C@H]1C(=O)[C@@H](C)OCc1ccccc1)OC -22.4%
CCOc1ccc(-c2nonc2NC(=O)c2ccco2)cc1 -26.3%
COc1ccccc1NC(=O)CCCc1nnc2n(C)c(=O)c3sccc3n12 11.3%
CCOc1ccc(CCNC(=O)c2ccc3c(c2)c(C)c(C)n3Cc2ccccc2)cc1OCC 119%
Cc1ccccc1-c1ccc(/C=C2/SC(N3CCOCC3)=NC2=O)o1 36.2%
COc1ccccc1NC(=O)c1sc2nc(C)c(C(=O)Nc3ccc(C)cc3C)c(-c3ccco3)c2c1N 16.6%
O=C1N[C@H](Cc2ccccc2)COC(=O)[C@H](Cc2ccc(F)cc2)CC/C=C/C[C@H]1CC(=O)N(CCO)Cc1ccccc1 -5.79%
CC(C)c1ccc(OCC(O)CN2CCN(c3ccccc3)CC2)cc1 (centres undefined) -15.1%
COc1cc(OC)cc(-c2cc3nc(C)c(CCC(=O)NCc4ccccc4)c(C)n3n2)c1 -19.5%
C[C@H](CO)N1C[C@H](C)[C@@H](CN(C)S(=O)(=O)c2ccc(Oc3ccccc3)nc2)OCc2cnnn2CCCC1=O -10.2%
C#Cc1ccc([C@H]2C=C(C(=O)OCC=C)O[C@@H](OCCCCO)C2)cc1 -16.8%
O=c1oc2c(O)cccc2cc1-c1nc2ccccc2[nH]1 33.1%
O=C(O)CCCCn1c(SCC(=O)Nc2ccccc2C(F)(F)F)nc2ccsc2c1=O -3.26%
C[C@@H]1CN([C@@H](C)CO)C(=O)CCCn2nncc2CO[C@@H]1CN(C)S(=O)(=O)c1ccc2c(c1)OCCCO2 -29%
Oc1[nH]c2ccccc2c1N=Nc1ccccc1Cl 52.6%
CCN(CC)c1ccc2cc(-c3nc(-c4cc5ccccc5oc4=O)cs3)c(=O)oc2c1 42.5%
O=C(C[C@@H]1C/C=C\C[C@H](NC(=O)OCC2c3ccccc3-c3ccccc32)C(=O)OC[C@H]2CCCN2C1=O)N[C@H](CO)Cc1ccccc1 -29.1%
C=CC[C@@H](CC(=O)N[C@H](CO)Cc1ccccc1)C(=O)N[C@H](COC(=O)[C@@H](CC=C)Cc1ccc(F)cc1)Cc1c[nH]c2ccccc12 -23%
C[C@@H]1C=C(C(=O)O)O[C@H](OCc2ccc(CO)cc2)C1 -29.6%
C[C@@H]1CN([C@@H](C)CO)C(=O)CCCn2nncc2CO[C@H]1CN(C)C(=O)c1ccccc1 -16.3%
O=C(NC1CC1)C1=C[C@H](c2ccccc2)C[C@H](OCc2ccc(CO)cc2)O1 3.35%
C[C@@H]1CN([C@@H](C)CO)C(=O)CCCn2cc(nn2)CO[C@H]1CN(C)C(=O)c1cc(-c2ccccc2)on1 -18.7%
C[C@H](CO)N1C[C@H](C)[C@@H](CN(C)S(=O)(=O)c2ccc(-n3cccn3)cc2)OCc2cn(nn2)CCCC1=O -18.8%
NC(=O)C(=O)N/N=C/c1c2ccccc2cc2ccccc12 34.6%
O[C@H]1CN(CC2CCCCC2)[C@@H](c2ccccc2)C[C@@H]1n1cc(C2CC2)nn1 -4.35%
C[C@H]1CCC[C@@]2(O[C@@H](CCO)C[C@H](O)[C@H]2O)O1 -22.5%
COC(C/C=C\C(=O)[C@H](C)OCc1ccccc1)OC -24.1%
CC(C)(C)S(=O)(=O)N1C[C@H]2CC/C=C\C/C=C\2[C@@H]1CCO -25.7%
C[C@@H]1CN([C@@H](C)CO)C(=O)CCCn2nncc2CO[C@@H]1CN(C)C(=O)C1CCCCC1 -12%
C=CC[C@H](CC(=O)N[C@H](CO)Cc1ccccc1)C(=O)N[C@@H](COC(=O)[C@H](CC=C)CC(=O)OC(C)(C)C)Cc1c[nH]c2ccccc12 -13.3%
Cc1ccc(NC(=O)c2c(C(=O)Nc3ccccc3)sc3nc(C)cc(=O)n23)cc1 -19.2%
CC(=O)C[C@H](O)CC(=O)[C@@H]1OC(=O)CCCCC/C=C/Cc2ccccc21 11.5%
C[C@H](CO)N1C[C@H](C)[C@@H](CN(C)S(=O)(=O)c2ccccc2)Oc2c(NC(=O)Nc3ccc(C(F)(F)F)cc3)cccc2C1=O -31.6%
CCOC(=O)CN1C(=O)N[C@@H](CCc2ccccc2)[C@@H](C(=O)OC)[C@H]1C -9.12%
CCc1cccc(NC(=O)c2cccc3c2C(=O)N(C2CCCCC2)C3)c1 -25.4%
CCOC(=O)Cn1c(=N)n(CCOc2ccc(OC)cc2)c2ccccc21 -5.01%
CN(C(=O)COC(=O)c1ccc([N+](=O)[O-])cc1N)c1ccccc1 37.9%
C[C@@H]1CCC[C@@]2(O[C@@H](CCO)C[C@H](O)[C@H]2O)O1 -20.3%
CCOC(=O)[C@@H]1[C@H]2COc3ccccc3[C@@H]2N2C(=O)N(c3ccc(Cl)cc3)C(=O)[C@@]12C -17.6%
C[C@H](CO)N1C[C@H](C)[C@H](CN(C)C(=O)c2ccc3ccn(C)c3c2)OCc2cnnn2CCCC1=O -16.2%

Potency, active:
COc1cc(/C=C(\C#N)C(=O)c2c[nH]c3ccccc23)cc(OC)c1O 28.2 µM
Cc1ccc(F)c(NC(=O)/C(C#N)=C(\O)c2ccc(C(C)(C)C)cc2)c1 22.4 µM
CN1CCS/C1=C/C=C1\SC(=S)N(CC(=O)O)C1=O 25.1 µM
Cc1ccc(-c2nn(-c3ccccc3)cc2/C=C2\SC(=S)N(CCCCCC(=O)O)C2=O)o1 7.08 µM
Cc1ccc(C(=O)N/C(=C\c2ccc(-c3ccccc3[N+](=O)[O-])o2)C(=O)NCCCN(C)C)cc1 28.2 µM
CCN1C(=O)/C(=C/C=C2/SCCN2C)SC1=S 25.1 µM
O=c1[nH]c(Nc2ccccc2)cc2ccccc12 2.51 µM
N#C/C(=C\c1ccc(-c2ccc(Cl)c(C(=O)O)c2)o1)c1nc2ccccc2[nH]1 31.6 µM
O=C1S/C(=C\c2ccc(N3CCOCC3)o2)C(=O)N1Cc1c(F)cccc1Cl 3.98 µM
O=C(Nc1cccc(C(F)(F)F)c1)c1ccc2nc(-c3ccco3)c(-c3ccco3)nc2c1 28.2 µM
